The text below walks through data of PMC4336329 (PLoS ONE, 2015).

Hit rate of the full screen: of about 310,000 compounds, about 14,000 (4.5%) showed an effect of 50% or more. The effect is printed as a negative number. The list shows a part of the results.
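Note: peak tail current of the secondary pulse compared with the same well before compound.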

The target of the assay is human ether-à-go-go-related gene (hERG) potassium channel (human, UniProt Q12809). The assay is described as follows: primary screen, population patch clamp on CHO cells stably expressing hERG.
human ether-à-go-go-related gene (hERG) potassium channel, sequence (Q12809 whole entry, looked up): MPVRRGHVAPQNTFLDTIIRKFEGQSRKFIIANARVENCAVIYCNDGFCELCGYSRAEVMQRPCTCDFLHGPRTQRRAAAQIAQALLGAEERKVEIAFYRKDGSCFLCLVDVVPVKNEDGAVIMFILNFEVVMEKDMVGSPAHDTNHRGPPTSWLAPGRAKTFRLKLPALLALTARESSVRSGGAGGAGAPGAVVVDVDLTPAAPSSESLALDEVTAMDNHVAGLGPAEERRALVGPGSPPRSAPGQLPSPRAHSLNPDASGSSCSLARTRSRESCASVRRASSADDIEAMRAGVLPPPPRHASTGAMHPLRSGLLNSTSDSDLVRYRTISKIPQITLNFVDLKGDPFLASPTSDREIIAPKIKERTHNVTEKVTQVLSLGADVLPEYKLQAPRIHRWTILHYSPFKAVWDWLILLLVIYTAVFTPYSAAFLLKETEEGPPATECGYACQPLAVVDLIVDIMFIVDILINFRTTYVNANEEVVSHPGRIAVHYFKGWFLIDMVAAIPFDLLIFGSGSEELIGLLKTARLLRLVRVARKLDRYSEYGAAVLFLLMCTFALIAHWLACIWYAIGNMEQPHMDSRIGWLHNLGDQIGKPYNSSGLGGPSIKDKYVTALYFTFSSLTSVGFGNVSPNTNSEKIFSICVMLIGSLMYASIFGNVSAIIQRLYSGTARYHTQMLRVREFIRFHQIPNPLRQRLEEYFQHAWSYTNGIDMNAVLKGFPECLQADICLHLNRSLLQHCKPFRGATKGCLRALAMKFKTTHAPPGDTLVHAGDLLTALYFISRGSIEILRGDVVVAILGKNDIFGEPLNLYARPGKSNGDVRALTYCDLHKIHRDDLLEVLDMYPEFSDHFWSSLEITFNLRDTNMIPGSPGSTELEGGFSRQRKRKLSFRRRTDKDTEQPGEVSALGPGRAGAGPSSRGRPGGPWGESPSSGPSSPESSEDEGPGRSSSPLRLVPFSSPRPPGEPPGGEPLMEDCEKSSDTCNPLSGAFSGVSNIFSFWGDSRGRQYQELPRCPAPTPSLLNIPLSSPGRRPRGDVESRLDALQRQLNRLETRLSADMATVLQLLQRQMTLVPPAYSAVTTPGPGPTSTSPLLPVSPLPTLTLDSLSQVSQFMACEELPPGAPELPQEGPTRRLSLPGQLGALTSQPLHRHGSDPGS
On to `CCCCCNC(=O)[C@@H]1CSC2c3ccccc3C(=O)N21` (stereo partly drawn), for which the “hERG current change (%, negative = inhibition) at 10uM” value was found to be 6.57%.
With `Cc1nc(SC2CCOC2=O)c2c(C)c(C)sc2n1` (stereo not drawn), the “hERG current change (%, negative = inhibition) at 10uM” value is reported as -0.66%.
`CCOC(=O)c1c(C)oc2c1cc(NS(=O)(=O)c1ccc(C(=O)O)cc1)c1ccccc12`: the “hERG current change (%, negative = inhibition) at 10uM” value is reported as -60.7%.
In the case of `Cc1ccc2[nH]c(=S)n(-c3cccnc3)c(=O)c2c1`, the “hERG current change (%, negative = inhibition) at 10uM” value was found to be 15.1%.
As to `Cc1ccc(CN2[C@@H](CC3CCCCC3)COCCS2(=O)=O)cc1`, the “hERG current change (%, negative = inhibition) at 10uM” value is listed as -19.3%.
With `CCOc1ccc(/C=C/C(=O)c2c(O)cc(C)oc2=O)cc1` the figure was 6.94%.
With `CCOC(=O)Nc1ccc2c(c1)OCO2`, the “hERG current change (%, negative = inhibition) at 10uM” value came out at 26.2%.
In the case of `CCOc1ccc(C(=O)/C=C/c2cn(CN3CCN(C)CC3)c3ccccc23)cc1`, the “hERG current change (%, negative = inhibition) at 10uM” value is given as -8.09%.
With `Cc1ccc(OC(=O)c2ccc(Cl)c([N+](=O)[O-])c2)cn1`, the “hERG current change (%, negative = inhibition) at 10uM” value is on record as 15.9%.
As to `C=CCn1c(C)nnc1SCC(=O)NC1CC1`, the “hERG current change (%, negative = inhibition) at 10uM” value is listed as 9.05%.
Then `Cc1ccc(NCC(=O)N/N=C\c2ccc[nH]2)cc1`, with -27.6%; and `Cc1ccccc1-n1c(-c2csc(C)c2C)n[nH]c1=S`, with 17.6%.
Turning to `CCN1CCN(C(=O)CSc2nc3c(c(=O)n(C)c(=O)n3C)n2C)CC1`, the “hERG current change (%, negative = inhibition) at 10uM” value stood at 2.79%.
Regarding `O=C(C1=C(O)C(=O)N(Cc2ccccc2)C1c1cccnc1)c1ccco1` (stereo not drawn), the “hERG current change (%, negative = inhibition) at 10uM” value amounted to 0.0177%.
As for `CCC(COC)NC(=O)CCc1nnc(Cc2cccc(C(F)(F)F)c2)o1` (stereo not drawn), the “hERG current change (%, negative = inhibition) at 10uM” value is listed as 1.43%.
For `O=C(Cn1nnc2ccccc2c1=O)NCC1CCC(C(=O)O)CC1` (stereo not drawn), the “hERG current change (%, negative = inhibition) at 10uM” value was determined as 13%.
As for `O=C(Oc1ccc[nH]c1=O)c1cc([N+](=O)[O-])cc([N+](=O)[O-])c1`, the “hERG current change (%, negative = inhibition) at 10uM” value is 13.5%.
Take `CC(OC(=O)c1ccc2c(=O)n3c(nc2c1)CCC3)C(=O)Nc1ccc(C(N)=O)cc1` (stereo not drawn): the “hERG current change (%, negative = inhibition) at 10uM” value is listed as 7.79%.
As for `CCOc1ccccc1O[C@H](c1ccccc1)[C@H]1CNCCO1.CS(=O)(=O)O.O`, the “hERG current change (%, negative = inhibition) at 10uM” value stood at 16.2%.
Regarding `Cc1ccc(N2CCC(N3CCN(C)C(CCO)C3)CC2)cc1` (stereo not drawn), the “hERG current change (%, negative = inhibition) at 10uM” value turned out to be 12.8%.
Then `CC(C)CNC(=O)C(=O)NCC1OCCCN1S(=O)(=O)c1ccc2c(c1)OCCO2` (stereo not drawn), with 4.37%.
As to `O=C1CS/C(=N/N=C/c2cccs2)N1Cc1ccc(F)cc1`, the “hERG current change (%, negative = inhibition) at 10uM” value turned out to be 9.38%.
With `Cc1cc(O)c(C(=O)Nc2cccc(Cl)c2)c(=O)n1C` the figure was 19.3%; with `C=CCN(c1ccccc1)S(=O)(=O)c1cccc(C(=O)Nc2ncccc2O)c1`, 8.35%; with `CC(C)Cn1c(N)c(C(=O)CSc2ncnc3sc4c(c23)CCCC4)c(=O)n(C)c1=O`, -0.479%.
In the case of `Cc1cc2ncn(-c3ncnc4sc5c(c34)CCCC5)c2cc1C`, the “hERG current change (%, negative = inhibition) at 10uM” value is listed as -23.7%.
With `O=C(CC1SC2=NCCN2C1=O)Nc1ccccc1` (stereo not drawn), the “hERG current change (%, negative = inhibition) at 10uM” value is listed as -2.72%.
On to `O=C(c1ccc(Cl)cc1)c1cnc2ccccn12`, for which the “hERG current change (%, negative = inhibition) at 10uM” value is given as 9.53%.
Consider `CNC(=S)N/N=C/c1ccc(OCc2ccccc2)c(Br)c1`, for which the “hERG current change (%, negative = inhibition) at 10uM” value amounted to 1.47%.
On to `Cc1cc(Cl)ccc1OCCCC(=O)NCc1ccncc1`, for which the “hERG current change (%, negative = inhibition) at 10uM” value is given as -44.4%.
For `O=C(O)C1CCN(C(=O)CSc2nc3ccccc3s2)CC1`, the “hERG current change (%, negative = inhibition) at 10uM” value is given as 16%.
Then `CCOC(=O)C1CCN(C(=O)COC(=O)c2ccccc2C(=O)c2ccc(Cl)cc2)CC1`, with -50.4%; and `COc1ccc(Cc2nnc(SCC(=O)Nc3ccc(N4CCOCC4)cc3)o2)cc1`, with 4.93%.
Turning to `Cc1csc(=NC(=O)c2ccccc2)n1Cc1ccco1`, the “hERG current change (%, negative = inhibition) at 10uM” value is -2.29%.
For the compound `CC(/C=N/NC(=O)c1c(Br)cnn1C)=C\c1ccccc1`, the “hERG current change (%, negative = inhibition) at 10uM” value is recorded as -13%.
For the compound `COc1cc(C(=O)NC(=S)N(C)Cc2ccccc2)cc(OC)c1OC`, the “hERG current change (%, negative = inhibition) at 10uM” value is -6.48%.
For the compound `CCN(Cc1ccccc1)S(=O)(=O)c1c(C(=O)N2CCCC2)c(C)n(C)c1C`, the “hERG current change (%, negative = inhibition) at 10uM” value is -3.66%.
Regarding `O=C(COc1ccc(-c2ccccc2)cc1)N1CCN(C(=O)c2cccs2)CC1`, the “hERG current change (%, negative = inhibition) at 10uM” value is on record as -41.8%.
In the case of `Nc1nc2ncc(CNc3ccc(C(=O)N[C@@H](CCC(=O)O)C(=O)O)cc3)nc2c(=O)[nH]1`, the “hERG current change (%, negative = inhibition) at 10uM” value stood at 5.77%.
In the case of `CCc1nc(C)cc(N)c1OCc1ccccc1.Cl.O`, the “hERG current change (%, negative = inhibition) at 10uM” value is reported as -23.2%.
On to `O=c1[nH]c2cccc(Cl)c2n(CCNc2ncc(C(F)(F)F)cc2Cl)c1=O`, for which the “hERG current change (%, negative = inhibition) at 10uM” value was -44.1%.
For the compound `Cc1cccc(OCCCn2c(=O)oc3ccc(C)cc32)c1`, the “hERG current change (%, negative = inhibition) at 10uM” value is 10%.
With `NCCc1nnc(SCC(=O)Nc2ccc(Br)cc2)o1`, the “hERG current change (%, negative = inhibition) at 10uM” value came out at 13%.
For the compound `C/C(=N/OC(=O)c1c(F)cccc1F)c1nccs1`, the “hERG current change (%, negative = inhibition) at 10uM” value is given as 3.34%.
Turning to `C=CCC1c2cccc(C(=O)O)c2C(=O)N1c1cccc(OC)c1` (stereo not drawn), the “hERG current change (%, negative = inhibition) at 10uM” value came out at 19.8%.
On to `O=c1c2ccccc2nc(-c2ccc([N+](=O)[O-])cc2)n1-c1ccccc1`, for which the “hERG current change (%, negative = inhibition) at 10uM” value is listed as 3.1%.
For `COc1ccc(NC(=O)Cn2c(-c3ccc(OC)cc3)cn(-c3ccc(C)cc3)c2=O)cc1`, the “hERG current change (%, negative = inhibition) at 10uM” value is given as 5.11%.
On to `O=C(c1ccoc1)N1CCC2(CC1)Oc1ccc(Cl)cc1C(=O)C21CC(c2ccccc2)=NO1` (stereo not drawn), for which the “hERG current change (%, negative = inhibition) at 10uM” value is listed as -1.66%.
In the case of `Cc1ccc(-c2cc(-c3ccc4c(c3)OCO4)c(C#N)c(N)n2)o1`, the “hERG current change (%, negative = inhibition) at 10uM” value is reported as 4.5%.
Regarding `c1ccc(-c2csc3ncnc(NCCCN4CCOCC4)c23)cc1`, the “hERG current change (%, negative = inhibition) at 10uM” value is -13.2%.
Regarding `Cc1nnc(SCC(=O)NC2CC2)n1-c1ccccc1`, the “hERG current change (%, negative = inhibition) at 10uM” value is reported as 17.3%.
Regarding `O=c1cc(-c2ccccc2)[nH]c2ccc(F)cc12`, the “hERG current change (%, negative = inhibition) at 10uM” value was determined as 5.52%.
Then `COc1ccc(-n2nc(C(=O)NCC(=O)NCc3ccc(F)cc3)c3ccccc3c2=O)cc1`, with -12.1%; and `Cc1cccc2cc(COC(=O)COc3ccccc3)c(=O)[nH]c12`, with 0.22%.
For `Cc1ccc(NC(=O)c2sccc2C)nc1`, the “hERG current change (%, negative = inhibition) at 10uM” value stood at 22.8%.
For `c1coc(CN2CN=C(Nc3nc4ccccc4s3)NC2)c1`, the “hERG current change (%, negative = inhibition) at 10uM” value stood at 20.6%.
Then `CCn1nc(C)c(NC(=O)/C=C/c2ccc(OC)c(COc3ccc(Cl)cc3Br)c2)c1C`, with 3.94%.
